The target of this assay is T1, biotinylated truncated STAT6 (123-632)-avi (Homo sapiens, UniProt P42226).
T1 sequence (P42226 123-632 limits assumed): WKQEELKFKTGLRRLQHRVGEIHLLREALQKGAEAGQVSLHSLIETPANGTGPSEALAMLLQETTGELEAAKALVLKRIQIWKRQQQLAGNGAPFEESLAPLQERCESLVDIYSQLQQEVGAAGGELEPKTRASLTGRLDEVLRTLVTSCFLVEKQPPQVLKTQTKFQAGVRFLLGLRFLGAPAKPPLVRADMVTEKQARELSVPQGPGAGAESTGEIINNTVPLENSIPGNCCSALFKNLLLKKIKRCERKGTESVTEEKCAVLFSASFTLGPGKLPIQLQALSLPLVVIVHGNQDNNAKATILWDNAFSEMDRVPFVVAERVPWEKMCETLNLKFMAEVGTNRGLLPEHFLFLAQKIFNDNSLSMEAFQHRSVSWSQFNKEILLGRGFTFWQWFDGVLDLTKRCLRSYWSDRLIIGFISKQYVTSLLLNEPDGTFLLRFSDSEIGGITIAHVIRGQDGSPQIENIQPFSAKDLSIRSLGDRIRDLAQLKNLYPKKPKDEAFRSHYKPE
Put plainly: Homogenous Time-Resolved Fluorescence (HTRF) binding assay. The conditions noted are these: 0.15 nM biotinylated truncated STAT6 (123-632)-avi, 20 nM fluorescein-labeled probe, 30 minutes room temperature.

As for `COc1ccc(CN(C)C(=O)c2cc3c(-c4ccccc4OC)cc(C4=CCCN(C(=O)CCn5ccnn5)C4)c(F)c3[nH]2)c(OC)c1` [Example I-1407], the IC50 – broadly, the concentration that gives 50% inhibition – was below 100 nM.

`COc1ccccc1-c1cc(C2=CCCN(C(=O)CCn3ccnn3)C2)c(F)c2[nH]c(C(=O)N3CCN(CC(=O)N4CCOCC4)CC3)cc12` [Example I-1408] gave an IC50 below 100 nM.

As to `COc1ccccc1-c1cc(C2=CCCN(C(=O)CCn3ccnn3)C2)c(F)c2[nH]c(C(=O)Nc3nccc(=O)[nH]3)cc12` [Example I-1409], the IC50 lay in the range of 100 to 1000 nM.

On to `COc1ccccc1-c1cc(C2=CCCN(C(=O)CCn3ccnn3)C2)c(F)c2[nH]c(C(=O)NC(CO)c3ccccc3Cl)cc12` (stereo not drawn) [Example I-1410], for which the IC50 was 100 to 1000 nM.

The molecule `COc1ccccc1-c1cc(C2=CCCN(C(=O)CCn3ccnn3)C2)c(F)c2[nH]c(C(=O)N3CCCN(CCO)CC3)cc12` [Example I-1411] had an IC50 of 100 to 1000 nM.

`COc1ccccc1-c1cc(C2=CCCN(C(=O)CCn3ccnn3)C2)c(F)c2[nH]c(C(=O)N3CCC(n4cccn4)CC3)cc12` [Example I-1412] had an IC50 below 100 nM.

Consider `COc1ccccc1-c1cc(C2=CCCN(C(=O)CCn3ccnn3)C2)c(F)c2[nH]c(C(=O)N3CCC(O)(C(F)(F)F)CC3)cc12` [Example I-1414], for which the IC50 fell in the range of 100 to 1000 nM.

`CNC(=O)C1CCN(C(=O)c2cc3c(-c4ccccc4OC)cc(C4=CCCN(C(=O)CCn5ccnn5)C4)c(F)c3[nH]2)CC1` [Example I-1416]: the IC50 is below 100 nM.

Molecule `COc1ccccc1-c1cc(C2=CCCN(C(=O)CCn3ccnn3)C2)c(F)c2[nH]c(C(=O)Nc3snc(C)c3C#N)cc12` [Example I-1417] gave an IC50 of 100 to 1000 nM.

The molecule `COc1ccccc1-c1cc(C2=CCCN(C(=O)CCn3ccnn3)C2)c(F)c2[nH]c(C(=O)N3CCN(Cc4nccs4)CC3)cc12` [Example I-1418] gave an IC50 below 100 nM.

`COc1ccccc1-c1cc(C2=CCCN(C(=O)CCn3ccnn3)C2)c(F)c2[nH]c(C(=O)N3CC(C)(C)c4ccccc43)cc12` [Example I-1419] gave an IC50 of 10000 to 100000 nM.

For `COc1ccccc1-c1cc(C2=CCCN(C(=O)CCn3ccnn3)C2)c(F)c2[nH]c(C(=O)N3Cc4cc(Br)ccc4CC3C)cc12` (stereo not drawn) [Example I-1420], the IC50 lay within 100 to 1000 nM.

As to `COc1ccccc1-c1cc(C2=CCCN(C(=O)CCn3ccnn3)C2)c(F)c2[nH]c(C(=O)N3CCc4[nH]c5ccccc5c4C3)cc12` [Example I-1421], the IC50 was below 100 nM.

For `COc1ccccc1-c1cc(C2=CCCN(C(=O)CCn3ccnn3)C2)c(F)c2[nH]c(C(=O)NC(C)c3nc(C)cs3)cc12` (stereo not drawn) [Example I-1422], the IC50 is 1000 to 10000 nM.

`COc1ccccc1-c1cc(C2=CCCN(C(=O)CCn3ccnn3)C2)c(F)c2[nH]c(C(=O)N(C)Cc3csc(C(C)C)n3)cc12` [Example I-1423] gave a half-inhibitory concentration (IC50) below 100 nM.

With `COc1ccccc1-c1cc(C2=CCCN(C(=O)CCn3ccnn3)C2)c(F)c2[nH]c(C(=O)N(C)CCC(C)O)cc12` (stereo not drawn) [Example I-1424], the IC50 was below 100 nM.

Regarding `COc1ccccc1-c1cc(C2=CCCN(C(=O)CCn3ccnn3)C2)c(F)c2[nH]c(C(=O)N3CCC(c4noc(C(C)C)n4)CC3)cc12` [Example I-1425], the IC50 is below 100 nM.

`COc1ccccc1-c1cc(C2=CCCN(C(=O)CCn3ccnn3)C2)c(F)c2[nH]c(C(=O)N3CCC(NC(C)=O)CC3)cc12` [Example I-1426] showed an IC50 below 100 nM.

Molecule `COc1ccccc1-c1cc(C2=CCCN(C(=O)CCn3ccnn3)C2)c(F)c2[nH]c(C(=O)N3CCN(Cc4ncccc4O)CC3)cc12` [Example I-1427] registered an IC50 below 100 nM.

`COc1ccccc1-c1cc(C2=CCCN(C(=O)CCn3ccnn3)C2)c(F)c2[nH]c(C(=O)N3CCN(c4cnc(N5CCSCC5)nc4)CC3)cc12` [Example I-1428] displayed an IC50 below 100 nM.

With `COc1ccccc1-c1cc(C2=CCCN(C(=O)CCn3ccnn3)C2)c(F)c2[nH]c(C(=O)N3CCN(c4cnc(O)c5cnccc45)CC3)cc12` [Example I-1429], the IC50 is below 100 nM.

As to `COc1ccc(N2CCN(C(=O)c3cc4c(-c5ccccc5OC)cc(C5=CCCN(C(=O)CCn6ccnn6)C5)c(F)c4[nH]3)CC2)nc1` [Example I-1430], the IC50 was below 100 nM.

`COc1ccccc1-c1cc(C2=CCCN(C(=O)CCn3ccnn3)C2)c(F)c2[nH]c(C(=O)N3CCN(c4ccc5[nH]cnc5n4)CC3)cc12` [Example I-1431] showed a half-maximal inhibitory concentration (IC50) below 100 nM.

Turning to `COc1cc2c(N3CCN(C(=O)c4cc5c(-c6ccccc6OC)cc(C6=CCCN(C(=O)CCn7ccnn7)C6)c(F)c5[nH]4)CC3)c(C#N)cnc2cc1O` [Example I-1432], the IC50 fell in the range of 100 to 1000 nM.

Consider `COc1ccccc1-c1cc(C2=CCCN(C(=O)CCn3ccnn3)C2)c(F)c2[nH]c(C(=O)N3CCN(c4ccnc5[nH]cc(C#N)c45)CC3)cc12` [Example I-1433], for which the IC50 is below 100 nM.

In the case of `COc1cc(OC)c(N2CCN(C(=O)c3cc4c(-c5ccccc5OC)cc(C5=CCCN(C(=O)CCn6ccnn6)C5)c(F)c4[nH]3)CC2)c(OC)c1` [Example I-1434], the IC50 fell in the range of 100 to 1000 nM.

For `COc1ccccc1-c1cc(C2=CCCN(C(=O)CCn3ccnn3)C2)c(F)c2[nH]c(C(=O)N3CCN(c4cnc5cc[nH]c5n4)CC3)cc12` [Example I-1435], the IC50 was below 100 nM.

`COc1ccccc1-c1cc(C2=CCCN(C(=O)CCn3ccnn3)C2)c(F)c2[nH]c(C(=O)N3CCC(c4c(OC)cccc4OC)CC3)cc12` [Example I-1436] showed an IC50 of 100 to 1000 nM.

Turning to `COc1ccccc1-c1cc(C2=CCCN(C(=O)CCn3ccnn3)C2)c(F)c2[nH]c(C(=O)N3CCN(c4ccc(C5CC5)cn4)CC3)cc12` [Example I-1437], the IC50 is below 100 nM.

On to `COc1ccccc1-c1cc(C2=CCCN(C(=O)CCn3ccnn3)C2)c(F)c2[nH]c(C(=O)N3CCN(c4cc5cn[nH]c(=O)c5cn4)CC3)cc12` [Example I-1438], for which the IC50 was below 100 nM.

Molecule `COc1ccccc1-c1cc(C2=CCCN(C(=O)CCn3ccnn3)C2)c(F)c2[nH]c(C(=O)N3CCN(c4cc(F)c(OC)c(F)c4)CC3)cc12` [Example I-1439] returned an IC50 of 100 to 1000 nM.

Molecule `COc1ccccc1-c1cc(C2=CCCN(C(=O)CCn3ccnn3)C2)c(F)c2[nH]c(C(=O)N3CCN(c4cnc5ccncc5c4)CC3)cc12` [Example I-1440] returned an IC50 below 100 nM.

For `COc1ccccc1-c1cc(C2=CCCN(C(=O)CCn3ccnn3)C2)c(F)c2[nH]c(C(=O)N3CCC(Nc4ncccc4OC)CC3)cc12` [Example I-1441], the IC50 was below 100 nM.

In the case of `CCS(=O)(=O)c1ccc(N2CCN(C(=O)c3cc4c(-c5ccccc5OC)cc(C5=CCCN(C(=O)CCn6ccnn6)C5)c(F)c4[nH]3)CC2)nc1` [Example I-1442], the IC50 was below 100 nM.

`COc1ccccc1-c1cc(C2=CCCN(C(=O)CCn3ccnn3)C2)c(F)c2[nH]c(C(=O)N3CCN(c4cccc(-c5ccccn5)n4)CC3)cc12` [Example I-1443] came in with an IC50 below 100 nM.

The molecule `COc1ccccc1-c1cc(C2=CCCN(C(=O)CCn3ccnn3)C2)c(F)c2[nH]c(C(=O)N3CCN(c4cc5ccccc5cn4)CC3)cc12` [Example I-1444] registered an IC50 below 100 nM.

Take `COc1ccccc1-c1cc(C2=CCCN(C(=O)CCn3ccnn3)C2)c(F)c2[nH]c(C(=O)N3CCN(c4nc(N5CCOCC5)c5sccc5n4)CC3)cc12` [Example I-1446]: the IC50 was below 100 nM.

The molecule `COc1ccccc1-c1cc(C2=CCCN(C(=O)CCn3ccnn3)C2)c(F)c2[nH]c(C(=O)N3CCN(c4cc(OC)c5sccc5n4)CC3)cc12` [Example I-1447] registered an IC50 below 100 nM.

`COc1ccccc1-c1cc(C2=CCCN(C(=O)CCn3ccnn3)C2)c(F)c2[nH]c(C(=O)N3CCN(c4cc(F)c5nccnc5c4)CC3)cc12` [Example I-1448]: the IC50 is below 100 nM.

As to `COc1ccccc1-c1cc(C2=CCCN(C(=O)CCn3ccnn3)C2)c(F)c2[nH]c(C(=O)N3CCN(c4ncc5ccc(F)cc5n4)CC3)cc12` [Example I-1450], the IC50 is below 100 nM.

Molecule `COc1ccccc1-c1cc(C2=CCCN(C(=O)CCn3ccnn3)C2)c(F)c2[nH]c(C(=O)N3CCN(c4nc(C)nc5c4oc4ccccc45)CC3)cc12` [Example I-1451] registered an IC50 below 100 nM.

Consider `COc1ccccc1-c1cc(C2=CCCN(C(=O)CCn3ccnn3)C2)c(F)c2[nH]c(C(=O)N3CCN(c4ccc(N5CCOCC5)c(F)c4)CC3)cc12` [Example I-1452], for which the IC50 was in the range of 100 to 1000 nM.

Consider `COc1ccccc1-c1cc(C2=CCCN(C(=O)CCn3ccnn3)C2)c(F)c2[nH]c(C(=O)N3CCN(c4ncc(F)c(O)n4)CC3)cc12` [Example I-1453], for which the IC50 is below 100 nM.

In the case of `COc1ccccc1-c1cc(C2=CCCN(C(=O)CCn3ccnn3)C2)c(F)c2[nH]c(C(=O)N3CCN(c4cccc5c4-c4ccccc4C5(C)C)CC3)cc12` [Example I-1454], the IC50 was 1000 to 10000 nM.

As to `COc1ccccc1-c1cc(C2=CCCN(C(=O)CCn3ccnn3)C2)c(F)c2[nH]c(C(=O)N3CCN(c4cc5c(O)ncnc5cn4)CC3)cc12` [Example I-1455], the IC50 was below 100 nM.

The molecule `COc1ccccc1-c1cc(C2=CCCN(C(=O)CCn3ccnn3)C2)c(F)c2[nH]c(C(=O)N3CC4(C3)CN(c3ncccc3OC)C4)cc12` [Example I-1456] yielded an IC50 below 100 nM.

The molecule `COc1ccccc1-c1cc(C2=CCCN(C(=O)CCn3ccnn3)C2)c(F)c2[nH]c(C(=O)N3CC4CC3CN4c3ncccc3OC)cc12` (stereo not drawn) [Example I-1457] gave an IC50 of 100 to 1000 nM.

For the molecule `COc1ccccc1-c1cc(C2=CCCN(C(=O)CCn3ccnn3)C2)c(F)c2[nH]c(C(=O)N3CCN(c4ccc5c(c4)Cc4ccccc4-5)CC3)cc12` [Example I-1458], the IC50 is 1000 to 10000 nM.

Values taken from US20250214977A1, “STAT6 INHIBITORS AND USES THEREOF” (Kymera Therapeutics, Inc., priority 2024, published 2025).
